Experimental data as given in the supplement of paper PMC11166567.
This is one part of the list.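 The calls were made as follows: active = permutation test q below 0.05 after Benjamini-Hochberg correction; inactive = q of 0.05 or more.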

These compounds were tested on A549 (assay: mean average precision of replicate retrieval against DMSO controls (Cell Painting phenotypic activity) (fraction (0-1)); higher = stronger, more reproducible morphological phenotype distinct from DMSO; extreme values may be limits of the assay). Settings: 24 h; 5 µM.
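Also: cosine similarity of well-level aggregated Cell Painting profiles ranks each compound's replicate wells against DMSO wells, four replicate plates, significance from 100,000 rank shuffles.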

Structure (SMILES) | mean average precision
Cc1c(C)c2c(c(C)c1O)CC[C@@](C)(CCC[C@H](C)CCC[C@H](C)CCCC(C)C)O2 | inactive: 0.252
Cc1ccc([N+](=O)[O-])cc1S(=O)(=O)N(C)C | inactive: 0.277
Cc1nn(C)c2nc(NNC(=O)Nc3cc(Cl)nc(Cl)c3)cc(C(C)C)c12 | active: 0.689
CC(=O)c1ccc(S(=O)(=O)NC(=O)NC2CCCCC2)cc1 | active: 0.365
c1cc(-c2cnn3cc(-c4ccc(N5CCNCC5)cc4)cnc23)c2cccnc2c1 | active: 0.607
C=CC(=O)Nc1cccc(Nc2nc(Nc3ccc(OCCOC)cc3)ncc2F)c1 | active: 1
COCCOC(=O)C1=C(C)NC(C)=C(C(=O)OC(C)C)C1c1cccc([N+](=O)[O-])c1 (stereo not given) | active: 0.367
O=c1n(CCCN2CCN(c3cccc(Cl)c3)CC2)nc2ccccn12 | inactive: 0.1
CN1C(=O)N(c2cc(Cl)cc(Cl)c2)C(=O)[C@]12CN(Cc1cc(C(=O)O)cs1)C[C@H]2c1ccc(C#N)cc1 | active: 0.347
C=C(NC(=O)C(=C)NC(=O)c1csc(C2=NC3c4csc(n4)C4NC(=O)c5csc(n5)C(C(C)(O)C(C)O)NC(=O)C5CSC(=N5)C(=CC)NC(=O)C(C(C)O)NC(=O)c5csc(n5)C3(CC2)NC(=O)C(C)NC(=O)C(=C)NC(=O)C(C)NC(=O)C(C(C)CC)NC2C=Cc3c(C(C)O)cc(nc3C2O)C(=O)OC4C)n1)C(N)=O (stereo not given) | active: 0.979
O=C1CCc2ccc(OCCCCN3CCN(c4cccc(Cl)c4Cl)CC3)cc2N1 | active: 0.951
CCCC[C@@H](NC(=O)[C@@H](Cc1cn(C(=O)OC)c2ccccc12)NC(=O)[C@H](CC(C)(C)C)NC(=O)N1[C@H](C)CCC[C@@H]1C)C(=O)O | inactive: 0.218
O=C(CCNNC(=O)c1ccncc1)NCc1ccccc1 | active: 0.33
c1cc(OCCN2CCCCC2)cc(-c2n[nH]c3ccc(-c4ncn[nH]4)cc23)c1 | active: 1
CCCCC(C)(O)C/C=C/[C@H]1[C@H](O)CC(=O)[C@@H]1CCCCCCC(=O)OC (stereo not given in full) | active: 0.703
O=C(/C=C/c1cccnc1)NCCCCC1CCN(C(=O)c2ccccc2)CC1 | active: 0.976
Oc1ccc(-c2nc(-c3ccc(F)cc3)c(-c3ccncc3)[nH]2)cc1 | active: 0.911
CC(=O)N[C@@H](CS)C(=O)O | active: 0.439

Structure (SMILES) | mean average precision
CC(OC(=O)NCC1(CC(=O)O)CCCCC1)OC(=O)C(C)C (stereo not given) | active: 0.453
OC[C@H]1O[C@@H](n2cnc3c2NC=NC[C@H]3O)C[C@@H]1O | active: 0.573
O=c1ccc2ccccc2o1 | active: 0.5
Cc1ccc(Cl)c(Nc2ccccc2C(=O)O)c1Cl | inactive: 0.218
CCCCCCCC/C=C\CCCCCCCC(=O)N[C@@H](CO)Cc1ccc(O)cc1 | active: 0.837
Nc1nnc(Sc2ncc([N+](=O)[O-])s2)s1 | active: 1
Nc1nc(=S)c2[nH]cnc2[nH]1 | active: 1
c1ccc(C(O[C@@H]2CCCN(CCc3ccc4c(c3)OCO4)C2)c2ccccc2)cc1 | inactive: 0.22
COc1cc2c(Oc3ccc4[nH]c(C)cc4c3F)ncnc2cc1OCCCN1CCCC1 | active: 1
O=C(NCCN1CCC(n2c(=O)[nH]c3cc(Cl)ccc32)CC1)c1ccc(F)cc1 | active: 1
CCOC(=O)C(C)=O | inactive: 0.152
c1ccc(-c2nn3c(c2-c2ccnc4cc(OCCN5CCOCC5)ccc24)CCC3)nc1 | active: 0.724
Cc1ccc(NC(=O)c2cccc(N(C)C)c2)cc1NC(=O)c1ccc(O)cc1 | active: 1
CC[C@@H]1C(=O)N(C)c2cnc(Nc3ccc(C(=O)NC4CCN(C)CC4)cc3OC)nc2N1C1CCCC1 | active: 1
CCCc1cc(C)[nH]c(=O)c1CNC(=O)c1cc(-c2ccc(N3CCN(C(C)C)CC3)nc2)cc2c1cnn2C(C)C | active: 1
Nc1nc(N)c2nc(-c3ccccc3)c(N)nc2n1 | active: 0.587
NC(CO)(CO)CO | inactive: 0.279
